# Measurements taken from article PMC11126936, “Reactivating Hippo by drug compounds to suppress gastric cancer and enhance chemotherapy sensitivity” (The Journal of Biological Chemistry, 2024).
# Several values for one entry are separate records, joined by “and”; a condition that tells them apart may be missing. Identical values can stand only once. Counter-ions that a name gives are not always drawn.
# System: not listed separately
# Test: Second-round AlphaScreen false-positive control (Table S4)
# Details: not given
row,Compound,False positive rate (%)
1,6-BIO,83.6108%
2,COc1ccc(C(=C2C(=O)Nc3ccccc32)c2ccc(OC)cc2)cc1 [TAS-301],40.9573%
3,Cl.Fc1ccc(-n2cc(CCCCN3CCC4(CC3)OCc3ccccc34)c3ccccc32)cc1 [Lu-28-179],28.534%

# Same assay, conditions: 2nd round validation screen, STRN3-MST2; disruption of protein-bead interactions
row,Compound,False positive rate (%)
1,Spiramycin,-1.065%
2,O=C(O)CCCC[C@@H]1SC[C@@H]2NC(=O)N[C@@H]21 [BIOTIN],97.8806%
3,C=CC(=O)Nc1cc(Nc2nccc(-c3cn(C)c4ccccc34)n2)c(OC)cc1N(C)CCN(C)C [AZD9291],28.7018%
4,COc1cc(-c2ccc(N=Nc3ccc4c(S(=O)(=O)[O-])cc(S(=O)(=O)[O-])c(N)c4c3O)c(OC)c2)ccc1N=Nc1ccc2c(S(=O)(=O)[O-])cc(S(=O)(=O)[O-])c(N)c2c1O.[Na+].[Na+].[Na+].[Na+] [CHICAGO SKY BLUE 6B],66.5178%
5,NCCOc1cc(C(=O)Nc2cc(OCCN)c3ccccc3n2)nc(C(=O)Nc2cc(OCCN)c3ccccc3n2)c1 [Pyridostatin],2.107%
6,COc1cc(NS(=O)(=O)c2ccc(N)cc2)ncn1 [Sulfamonomethoxine],1.205%
7,CCCCCCCCCCCCCCCC[N+](C)(C)CCN(Cc1ccc(OC)cc1)c1ncccn1 [THONZONIUM BROMIDE],-3.7338%
8,NCC(=O)Nc1ccc(-n2nc(C(F)(F)F)cc2-c2ccc3c(ccc4ccccc43)c2)cc1 [osu-03012],19.2372%
9,Cc1cc(-c2ccc(/N=N/c3ccc4c(S(=O)(=O)O)cc(S(=O)(=O)O)c(N)c4c3O)c(C)c2)ccc1/N=N/c1ccc2c(S(=O)(=O)O)cc(S(=O)(=O)O)c(N)c2c1O [Evans blue],68.3541%
10,Glycerite,83.611% and 65.1816%
11,CO[C@H]1C[C@H](O[C@@H]2/C(C)=C/C[C@@H]3C[C@@H](C[C@]4(CC[C@H](C)[C@@H](C5CCCCC5)O4)O3)OC(=O)[C@@H]3C=C(C)/C(=N/O)[C@H]4OC/C(=C\C=C\[C@@H]2C)[C@]43O)O[C@@H](C)[C@@H]1O [SelaMeerin],8.709%
12,[H]/N=C(\N/C(=N/[H])NCCCCCCNC(=N)NC(=N)Nc1ccc(Cl)cc1)Nc1ccc(Cl)cc1 [Chlorhexidine],-16.6514%
13,Abamectin,17.4999%
14,CN(C)Cc1ccc(-c2cnn3c(-c4cccc(NC(=O)c5cccc(C(F)(F)F)c5)c4)ccnc23)cc1 [B-Raf IN 1],3.141%
15,CC(C)c1cc(-c2n[nH]c(=O)n2-c2ccc3c(ccn3C)c2)c(O)cc1O [Ganetespib],21.1678%
16,CC(C)N1CCN(c2ccc(OCC3COC(Cn4cncn4)(c4ccc(Cl)cc4Cl)O3)cc2)CC1 (stereo not shown) [Terconazole],14.704%
17,CC(C)/N=c1\cc2n(-c3ccc(Cl)cc3)c3ccccc3nc-2cc1Nc1ccc(Cl)cc1 [Clofazimine],55.2232%
18,Cc1ccc(C(=O)Nc2ccc(CN3CCN(C)CC3)c(C(F)(F)F)c2)cc1C#Cc1cnc2[nH]ncc2c1 [GZD824 Dimesylate],-6.156%
19,"CN1CCCN(C(=O)c2cccc(-c3ccc(C=C4C(=O)Nc5ccc(Cl)cc54)o3)c2)CC1 [CX, CX-6258]",18.0915%
20,O=[N+]([O-])c1ccc(O)c2ncccc12 [Nitroxoline],72.0137%

row,Compound,False positive rate (%)
1,Cc1c(-c2ccc(O)cc2)n(Cc2ccc(OCCN3CCCCCC3)cc2)c2ccc(O)cc12 [Bazedoxifene acetate],12.8279%
2,COc1c2ccoc2cc2oc(=O)ccc12 [Bergapten],89.6696%
3,CNC(=O)c1cc(Oc2ccc(NC(=O)Nc3ccc(Cl)c(C(F)(F)F)c3)c(F)c2)ccn1 [Regorafenib],36.7223%
4,Teicoplanin,-9.109%
5,"COc1cc(N2CCC(N3CCN(C)CC3)CC2)ccc1Nc1ncc(Cl)c(Nc2ccccc2S(=O)(=O)C(C)C)n1 [TAE684 (NVP-TAE684), TAE684]",46.7593%
6,CC[C@@H](c1cccc(O)c1)[C@@H](C)CN(C)C.Cl [Tapentadol Hydrochloride],12.5306%
7,CCCCc1oc2ccccc2c1C(=O)c1cc(I)c(OCCN(CC)CC)c(I)c1 [Amiodarone hydrochloride],7.287%
8,CO[C@H]1C[C@H](O[C@H]2[C@H](C)O[C@@H](O[C@@H]3/C(C)=C/C[C@@H]4C[C@@H](C[C@]5(C=C[C@H](C)[C@@H](C6CCCCC6)O5)O4)OC(=O)[C@@H]4C=C(C)[C@@H](O)[C@H]5OC/C(=C\C=C\[C@@H]3C)[C@]54O)C[C@@H]2OC)O[C@@H](C)[C@@H]1O [Doramectin],13.8074%
9,CC1(C)S[C@@H]2[C@H](N3C(=O)[C@@H](c4ccccc4)NC3(C)C)C(=O)N2[C@H]1C(=O)O [HETACILLIN POTASSIUM],-1.274%
10,Cc1ccc(C(=O)Nc2ccc(S(=O)(=O)[O-])c3cc(S(=O)(=O)[O-])cc(S(=O)(=O)[O-])c23)cc1NC(=O)c1cccc(NC(=O)Nc2cccc(C(=O)Nc3cc(C(=O)Nc4ccc(S(=O)(=O)[O-])c5cc(S(=O)(=O)[O-])cc(S(=O)(=O)[O-])c45)ccc3C)c2)c1.[Na+].[Na+].[Na+].[Na+].[Na+].[Na+] [Suramin Sodium Salt],13.1037%
11,CC(C)(C)c1ccc(C(=O)CCCN2CCC(OC(c3ccccc3)c3ccccc3)CC2)cc1 [Ebastine],11.7647%
12,CO/N=C1\C[C@]2(C[C@@H]3C[C@@H](C/C=C(\C)C[C@@H](C)/C=C/C=C4\CO[C@@H]5[C@H](O)C(C)=C[C@@H](C(=O)O3)[C@]45O)O2)O[C@H](/C(C)=C/C(C)C)[C@H]1C [Moxidectin],23.9524%
13,CCN1c2cc(N)ccc2-c2ccc(N)cc2C1c1ccccc1 (stereo not shown) [Dihydroethidium],45.959%
14,COC1CCN(C(=O)c2cc(Cc3n[nH]c(=O)c4ccccc34)ccc2F)CC1 [AZD2461],21.0804%
15,"CCOc1cc2ncc(C#N)c(Nc3ccc(F)c(Cl)c3)c2cc1NC(=O)/C=C/CN(C)C [Pelitinib (EKB-569), Pelitinib]",7.906%
16,C/C(=N\NC(=S)N1CCC1)c1ccccn1 [NSC319726],55.8309%
17,Chlorophyllin,59.4685%
18,O=C(O)c1cc(O)c2c(c1)[C@@H]([C@H]1c3cc(C(=O)O)cc(O)c3C(=O)c3c(O[C@@H]4O[C@H](CO)[C@@H](O)[C@H](O)[C@H]4O)cccc31)c1cccc(O[C@@H]3O[C@H](CO)[C@@H](O)[C@H](O)[C@H]3O)c1C2=O [Sennoside B],74.2713%
19,Cc1cc(O)c2c(c1)C(=O)c1cc(O)cc(O)c1C2=O [Emodin],22.5571%

# Same assay, conditions: 2nd round validation screen, STRN3-MST2; disruption of protein-bead interactions; listed as D-Biotin
row,Compound,False positive rate (%)
1,O=C(O)CCCC[C@@H]1SC[C@@H]2NC(=O)N[C@@H]21 [BIOTIN],97.6042%

# System: seven GC cell lines (MKN-28, NUGC-4, SNU-216, MGC-803, AGS, MKN-45, HGC-27)
# Test: Cell viability of seven GC cell lines
# Details: Homo sapiens, read-out: IC50 values, seven GC cell lines
row,Compound,IC50
1,"CCN(CC)C(=S)SSC(=S)N(CC)CC [DSF, disulfiram]",40 to 190 nM

# System: 11 different GC cells
# Test: Cisplatin cell viability in 11 GC cell lines
# Details: read-out: IC50, cisplatin-resistant GC cell lines; cell lines with lower pMST1/2 such as AGS, AZ521, MKN-28
row,Compound,IC50
1,N.N.[Cl][Pt][Cl] [cisplatin],> 20000 nM

# System: Hippo signaling (LATS1, MOB1, YAP phosphorylation) in HGC-27 cells
# Test: Immunoblots of Hippo components in HGC-27 cells
# Details: not given
row,Compound,"phosphorylation of LATS1, MOB1 and YAP"
1,"CN1CCCN(C(=O)c2cccc(-c3ccc(C=C4C(=O)Nc5ccc(Cl)cc54)o3)c2)CC1 [CX, CX-6258]",enhanced

# System: not listed separately
# Test: Second-round AlphaScreen false-positive control with biotin-labeled and His-tagged STRN3 (Table S2)
# Details: not given
row,Compound,False positive rate (%)
1,COc1cc(OC)c(C=C2C(O)=Nc3ccccc32)c(OC)c1 [IC261],10.8171%
2,COc1cccc(NCC(F)Cn2c3ccc(Br)cc3c3cc(Br)ccc32)c1 (stereo not shown) [P7C3-A20],18.713%
3,6-BIO,82.4556%
4,O=C(/C=C/c1ccc2ccccc2n1)c1ccncc1 [PFK-015],0.3672%
5,COc1ccc(C(=C2C(=O)Nc3ccccc32)c2ccc(OC)cc2)cc1 [TAS-301],38.0603%
6,CC(C)CN(C[C@@H](O)[C@H](Cc1ccccc1)NC(=O)O[C@H]1CO[C@H]2OCC[C@H]21)S(=O)(=O)c1ccc(N)cc1.CCO [Darunavir Ethanolate],7.178%
7,"CCOc1cc2ncc(C#N)c(Nc3ccc(OCc4ccccn4)c(Cl)c3)c2cc1NC(=O)/C=C/CN(C)C [Neratinib(HKI-272), Neratinib]",9.966%
8,O=C([O-])c1ccccc1-c1c2cc(Br)c(=O)cc-2oc2[c]([Hg+])c([O-])c(Br)cc12.[Na+].[Na+].[OH-] [Merbromin],18.2372%
9,CC(=O)OCC1=C(C(=O)O)N2C(=O)[C@@H](NC(=O)CCC[C@@H](N)C(=O)O)[C@H]2SC1 [CEPHALOSPORIN C],2.128%
10,CNC(=O)c1ccccc1Nc1nc(Nc2ccc(N3CCOCC3)cc2OC)ncc1Cl [TAE-226],27.8775%
11,O=C1NC(=NCc2cccs2)S/C1=C\c1ccc2ncccc2c1 [Ro-3306],8.046%
12,COc1ccc(C(=O)O[C@H]2CC[C@@]3(C)[C@@H]4CC[C@H]5[C@]6(O)C[C@H](O)[C@@]7(O)[C@@H](CN8C[C@@H](C)CC[C@H]8[C@@]7(C)O)[C@]6(O)C[C@@]53O[C@]24O)cc1OC [Veratridine],16.6514%
13,NCCNc1ccc(NCCN)c2c1C(=O)c1ccncc1C2=O.O=C(O)/C=C\C(=O)O.O=C(O)/C=C\C(=O)O [Pixantrone dimaleate],64.3519%
14,COc1ccc(N(C(=O)Oc2c(C)cccc2C)c2ccnc(Nc3ccc(N4CCN(C)CC4)cc3)n2)c(OC)c1 [WH-4-023],30.0893%
15,C[n+]1cc2c3c(ccc2c2ccc4cc5c(cc4c21)OCO5)OCO3 [SANGUINARIUM CHLORIDE],-0.3506%
16,CC1=C(O)C(=O)C=C2C1=CC=C1[C@@]2(C)CC[C@@]2(C)[C@@H]3C[C@](C)(C(=O)O)CC[C@]3(C)CC[C@]12C [CELASTROL],22.2936%
17,OC(CNc1ccccc1)Cn1c2ccc(Br)cc2c2cc(Br)ccc21 (stereo not shown) [P7C3],31.4915%
18,COc1cc(N2CCC(N)CC2)ccc1Nc1ncc(Cl)c(-c2c[nH]c3ccccc23)n1 [AZD3463],62.6993%
